Among all 110,000 compounds or so, about 230 (0.21%) showed an effect of 50% or more. The list shows a part of the results.
Each molecule was assayed against DPAP1 (Plasmodium falciparum, UniProt Q8IIJ9) (assay: primary screen, percent inhibition; read by cleavage of a fluorogenic dipeptide substrate; higher = more effect of the substance).
Set-up: species or system P. falciparum D10 trophozoite lysates; single well
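Also: 30 min substrate incubation versus DMSO and 10 µM JCP410 controls.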

DPAP1, sequence (Q8IIJ9 whole entry, looked up): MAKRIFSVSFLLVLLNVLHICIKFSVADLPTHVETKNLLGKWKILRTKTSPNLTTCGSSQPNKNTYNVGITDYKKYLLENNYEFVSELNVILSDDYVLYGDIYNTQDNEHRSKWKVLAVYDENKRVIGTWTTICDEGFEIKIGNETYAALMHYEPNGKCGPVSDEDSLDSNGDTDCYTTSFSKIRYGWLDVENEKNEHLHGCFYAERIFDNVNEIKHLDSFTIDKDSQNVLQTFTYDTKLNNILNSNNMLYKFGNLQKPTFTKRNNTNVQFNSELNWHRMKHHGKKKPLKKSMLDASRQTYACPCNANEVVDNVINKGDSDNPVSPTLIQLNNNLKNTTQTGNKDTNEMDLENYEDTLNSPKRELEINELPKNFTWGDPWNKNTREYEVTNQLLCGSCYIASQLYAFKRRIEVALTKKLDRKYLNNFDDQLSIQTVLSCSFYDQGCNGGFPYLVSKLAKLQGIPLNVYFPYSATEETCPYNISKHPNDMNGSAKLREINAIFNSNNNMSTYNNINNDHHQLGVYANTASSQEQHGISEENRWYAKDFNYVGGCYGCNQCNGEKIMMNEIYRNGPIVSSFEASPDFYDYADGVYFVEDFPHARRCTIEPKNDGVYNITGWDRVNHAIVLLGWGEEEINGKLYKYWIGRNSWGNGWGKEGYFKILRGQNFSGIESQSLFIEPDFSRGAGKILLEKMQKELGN

First: CC(NC(=O)C1CCCN(S(=O)(=O)c2cccs2)C1)c1ccccc1 (centres unmarked)
Second: CCN(CC)C(=O)C1CCCN(Cc2ccc3c(c2)c2ccccc2n3CC)C1 (centres unmarked)
The “% Inhibition @ 10 uM” value of the first is higher: 4.07% for the first, -1.07% for the second.

Compared with `COC(=O)c1ccc(C2C(C(=O)OC(C)C)=C(C)N=C3SCCC(=O)N32)cc1` (centres unmarked), `Cc1ccccc1OCC(=O)Nc1ccc(C(=O)NCC(C)C)cc1` is higher in “% Inhibition @ 10 uM” value: -5.63% for the first, -1.95% for the second.

Compared with `CC(=O)c1ccc(N2CCN(C)CC2)c(F)c1`, `COc1ccc(Cl)cc1N1C(=O)CC(N2CCN(C)CC2)C1=O` (centres unmarked) is lower in “% Inhibition @ 10 uM” value: -3.72% for the first, -6.68% for the second.

Going from `COc1cc(CN2CCN(c3cccc(C(F)(F)F)c3)CC2)cc(OC)c1` to `CCN1CCN(c2ncnc3scc(-c4ccc(Cl)cc4)c23)CC1`, the “% Inhibition @ 10 uM” value rises from -0.856% to 0.931%.

First: COc1cccc(OC)c1C(=O)Nc1ccc(Oc2ccccc2)cc1
Second: CCN(c1ccccc1)S(=O)(=O)c1ccc(NC(=O)c2ccccc2Br)cc1
The “% Inhibition @ 10 uM” value of the first is lower: -1.36% for the first, 0.11% for the second.

First: COc1ccc(C2C3=C(O)CC(c4ccco4)CC3=Nc3nc4ccccc4n32)cc1 (centres unmarked)
Second: Cc1ccc(C2C3=C(O)CC(C)(C)CC3=Nc3ccccc3N2C(=O)c2ccccc2)o1 (centres unmarked)
The “% Inhibition @ 10 uM” value of the first is higher: -3.53% for the first, -5.96% for the second.

Compared with `CC1CCN(c2ncnc3c2oc2ccccc23)CC1`, `CC1CCCCC1Nc1ncccn1` (centres unmarked) is higher in “% Inhibition @ 10 uM” value: 0.0265% for the first, 1.27% for the second.

Going from `Cn1cnc2c1c(=O)n(CNc1ccccc1)c(=O)n2C` to `Cc1ccc(Nc2nc(-c3ccccc3)cs2)cc1C`, the “% Inhibition @ 10 uM” value falls from -1.88% to -2%.

Going from `CC1=CN2C(=O)C(NC(=O)COc3ccccc3)(C(F)(F)F)N=C2S1` (centres unmarked) to `O=C(COc1ccccc1)Nc1nc(C2COc3ccccc3O2)cs1` (centres unmarked), the “% Inhibition @ 10 uM” value falls from 0.221% to 0.00706%.

Going from `Clc1ccc(-c2noc3ncnc(N(Cc4ccco4)C4CCCC4)c23)cc1` to `COc1cccc2cc(-c3nc(-c4ccccn4)no3)c(=O)oc12`, the “% Inhibition @ 10 uM” value falls from -0.704% to -3.13%.

Going from `COc1ccc(/C=C/c2nc(=O)c(-c3ccccc3)c(C)o2)cc1` to `COc1ccc(/C=C2\SC(=N)N(c3nccs3)C2=O)cc1`, the “% Inhibition @ 10 uM” value falls from 5.17% to -1.84%.

Going from `CNc1oc(-c2ccc([N+](=O)[O-])cc2)nc1C#N` to `N#CC1=C(N)OC2=C(C(=O)CCC2)C1c1ccncc1` (centres unmarked), the “% Inhibition @ 10 uM” value rises from -6.68% to -0.587%.

First: O=C(NCCc1c[nH]c2ccc(OCc3ccccc3)cc12)C1CC1
Second: O=C(O)CCN1C2=C(C(=O)CCC2)C(c2ccc(OCc3cccc(F)c3)cc2)C2=C1CCCC2=O
The “% Inhibition @ 10 uM” value of the first is lower: -1.86% for the first, 3.27% for the second.

First: NC(=O)CSc1nnnn1-c1ccccc1
Second: Brc1ccccc1-c1nnc2sc(-c3ccccn3)nn12
The “% Inhibition @ 10 uM” value of the first is lower: -12.5% for the first, -2.21% for the second.

First: O=C(/C=C(/c1ccc(Cl)cc1)n1cncn1)c1ccc(Cl)cc1
Second: NC(=O)c1ccc(NC(=O)c2sc3ccccc3c2Cl)cc1
The “% Inhibition @ 10 uM” value of the first is higher: 3.57% for the first, 2.45% for the second.

Going from `O=C(Nc1ccc(Cl)c(Cl)c1)[C@@H]1C2C=CC(C2)[C@@H]1C(=O)O` (some centres unmarked) to `CC(=O)c1cccc(NC(=O)C2CC3c4ccccc4C2c2ccccc23)c1` (centres unmarked), the “% Inhibition @ 10 uM” value rises from -4.43% to 3.91%.

First: Cc1sc(NC(=O)c2ccccc2F)c(CN2CCCC2)c1C
Second: O=C(NCCN1CCCC1)c1ccccc1Cl
The “% Inhibition @ 10 uM” value of the first is lower: -2.99% for the first, 1.61% for the second.

First: CC(C(O)c1ccc2c(c1)CCCC2)N1CCCCC1 (centres unmarked)
Second: COc1ccc(OCCCCCN2CCCCC2)cc1
The “% Inhibition @ 10 uM” value of the first is lower: -7.39% for the first, -3.42% for the second.

First: O=C(Nc1cccc(O)c1)c1cccnc1
Second: O=C(Nc1cccc(O)c1)c1ccc(C(F)(F)F)cc1
The “% Inhibition @ 10 uM” value of the first is lower: -4.08% for the first, 13.7% for the second.

Going from `COc1cc(C2C3=C(CC(C)(C)CC3=O)OC3=C2C(=O)CC(C)(C)C3)cc(Br)c1OC` to `CCOC(=O)c1c(NC(=O)c2cc(Cl)cc(Cl)c2OC)sc2c1CCCC2`, the “% Inhibition @ 10 uM” value falls from 13.2% to -4.61%.

Going from `CCOCCCNC(=O)C1CCCN(S(=O)(=O)N2CC(C)CC(C)C2)C1` (centres unmarked) to `CCSC(=O)NC12CC3CC(CC(C3)C1)C2`, the “% Inhibition @ 10 uM” value rises from -1.21% to 0.526%.

Going from `COc1ccc(CC(=O)N[C@@H](CC2CCCCC2)C(=O)NCC#N)cc1` to `C=CCSc1ncc(Cl)c(C(=O)NCc2ccc(OC)cc2)n1`, the “% Inhibition @ 10 uM” value rises from -1.83% to 5.54%.

First: CNC(=O)c1ccc(NC(=O)Nc2ccccc2)cc1
Second: Cc1ccc2c(CNCc3cccc(F)c3)c(C(=O)O)n(Cc3ccccc3C)c2c1
The “% Inhibition @ 10 uM” value of the first is lower: -1.97% for the first, 2.62% for the second.

Going from `CCCCSc1nc(O)cc(=O)n1C1CCCCC1` to `CC(C)(C)c1ccc(-c2nc(CN3CCOCC3)cc(CN3CCOCC3)c2O)cc1`, the “% Inhibition @ 10 uM” value rises from 2.01% to 3.98%.

First: CCc1nc2ccc(C(=O)NC(C)c3ccc4c(c3)OCCO4)cc2nc1CC (centres unmarked)
Second: C=CCc1ccccc1OCC(O)CN1CC(C)OC(C)C1 (centres unmarked)
The “% Inhibition @ 10 uM” value of the first is higher: 5.17% for the first, -2.12% for the second.
